In PubChem BioAssay AID624417 (National Center for Advancing Translational Sciences (NCATS), 2012):
The whole screen tested about 410,000 compounds, of which about 6,400 (1.6%) were called active. The shares of active, inactive and inconclusive entries below differ from those in the screen. Calls follow the shape of the dose curve; as a rule, active = well fitted inhibition curve with a large enough effect; inconclusive = small, poorly fitted or top-dose-only effect; inactive = no such curve, though single readings can be large or run the other way. Potencies beside an inconclusive call are fits to weak or partial responses and may not hold up.

Target: Glucagon-like peptide 1 receptor (Homo sapiens) (UniProt P43220)
Assay: qHTS of GLP-1 Receptor Inverse Agonists (Inhibition Mode); also: nearly all actives have a fitted effect of over 55% in size
Conditions: HEK293 GLP-1R CRE-luciferase, luminescence, 24 h, GLP-1R form is constitutively active; series mostly up to 38.3 µM
How it was run: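 Seeding at 200 cells/uL, 12 h culture, 24 hr compound treatment, then luciferase reagent and a luminescence read; cells are HEK293 stably expressing a constitutively active GLP-1R plus cAMP-responsive luciferase.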
Potency is read from the fitted curve at half-maximal effect; tags tell the direction and shape of the fitted curve.

Chain of UniProt P43220 (P43220 whole entry, looked up): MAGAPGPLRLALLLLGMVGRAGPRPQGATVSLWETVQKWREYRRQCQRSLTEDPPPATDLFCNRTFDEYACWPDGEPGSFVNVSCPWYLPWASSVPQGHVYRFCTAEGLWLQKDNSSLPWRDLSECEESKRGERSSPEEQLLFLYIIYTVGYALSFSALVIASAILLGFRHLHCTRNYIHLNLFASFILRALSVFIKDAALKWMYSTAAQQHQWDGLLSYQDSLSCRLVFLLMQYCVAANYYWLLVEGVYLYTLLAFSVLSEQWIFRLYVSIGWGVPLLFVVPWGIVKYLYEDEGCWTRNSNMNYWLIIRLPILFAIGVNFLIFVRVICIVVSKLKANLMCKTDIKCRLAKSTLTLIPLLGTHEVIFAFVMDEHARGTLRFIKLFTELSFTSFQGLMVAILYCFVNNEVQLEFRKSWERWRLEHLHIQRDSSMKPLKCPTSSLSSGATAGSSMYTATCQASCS

Potency, inconclusive:
CC1CCN(C(=O)c2ccc(SCc3ccccc3F)c([N+](=O)[O-])c2)CC1 7.94 µM [inhibitor, partial curve, poor fit]
O=C(Nc1ccccc1)c1cc2ccccc2o1 20 µM [inhibitor, single point]
CC(=O)N1CC(c2ccccc2)C(c2ccc(Cl)cc2)=N1 (stereo not given) 14.1 µM [inhibitor, partial curve, poor fit]
CCc1ccc(NC(=O)Nc2cccc(OC)c2)cc1 7.94 µM [inhibitor, partial curve, poor fit]
CCCCN(C(=O)C(C)Oc1ccc(Br)cc1)c1c(N)n(Cc2ccccc2)c(=O)[nH]c1=O (stereo not given) 28.2 µM [inhibitor, single point]
COc1ccc(CNC(=O)C[C@H]2C(=O)N(CCc3ccccc3)C[C@@H]2Cc2ccccc2)cc1 28.2 µM [inhibitor, single point]
CCCCN1C(=O)C2(NNc3ccccc3O2)c2ccccc21 (stereo not given) 11.2 µM [inhibitor, partial curve, poor fit]
O=C(COC(=O)c1ccccc1C(=O)c1ccc(Cl)c([N+](=O)[O-])c1)NC1CCCCCC1 10 µM [inhibitor, single point]
COc1ccc(CNCc2cccc3ccccc23)cc1 20 µM [inhibitor, single point]
Cc1cccc(OCc2nnc(SCC(=O)N3CC(=O)Nc4ccccc43)o2)c1 3.98 µM [inhibitor, full curve]
CC1CCN(c2nc(N(C)c3ccccc3)nc(N)c2[N+](=O)[O-])CC1 28.2 µM [inhibitor, single point]
C[C@]12c3[nH]c4cc(-c5ccco5)ccc4c3CCN1C(=O)[C@@H](CC(=O)NCCC1=CCCCC1)C[C@@H]2C(=O)N1CCOCC1 28.2 µM [inhibitor, single point]
COc1ccccc1N1CCN(CC(O)COc2cc(C)cc(C)c2)CC1 (stereo not given) 3.98 µM [inhibitor, full curve]
CCOc1ccc(N2C(=O)N(Cc3ccc(C)cc3C)c3ccccc3S2(=O)=O)cc1 0.708 µM [inhibitor, full curve, poor fit]
CCCCNC(=O)c1onc(CSc2ccccc2C)c1C(=O)O 12.6 µM [inhibitor, single point]
CC(C)Cc1ccc(C(C)/C=C2/CCC(CN3CCCCC3)C2=O)cc1 (stereo not given) 28.2 µM [inhibitor, single point]
Cc1ccccc1OCCn1c(=S)[nH]c2ccccc21 22.4 µM [inhibitor, single point]
CC1CC(C)CN(C(=O)COC(=O)c2cc3ccccc3cc2O)C1 (stereo not given) 22.4 µM [inhibitor, partial curve, poor fit]
COc1ccc(N2CCN(S(=O)(=O)c3ccc4c(c3)CCCC4)CC2)c([N+](=O)[O-])c1 28.2 µM [inhibitor, single point]
Cc1ccc(NC(=O)C(=O)NCC(c2cccnc2)N2CCc3ccccc32)cc1Cl (stereo not given) 20 µM [inhibitor, single point]
O=C1c2c(-c3ccc(Br)cc3)noc2CCN1Cc1cn(-c2ccccc2)nn1 31.6 µM [inhibitor, single point]
O=C(Nc1ccc(F)c(Cl)c1)c1cc(S(=O)(=O)N2CCCc3ccccc32)ccc1F 11.2 µM [inhibitor, single point]
FC(F)Sc1ccc(NC(=S)NC2CCCC2)cc1 10 µM [inhibitor, single point]
O=C1Nc2ccccc2-c2nnnn2C1N1CCC(Cc2ccccc2)CC1 (stereo not given) 28.2 µM [inhibitor, single point]
COc1ccc(C(C)=NNc2ccc([N+](=O)[O-])cc2S(=O)(=O)Nc2ccccc2C(=O)O)c(OC)c1 10 µM [inhibitor, partial curve, poor fit]
Cc1ccc(CN2CCN(CC(=O)NCc3ccccc3Cl)C2=O)cc1 7.94 µM [inhibitor, partial curve]
N#Cc1ccc(C23CC4(C2)[C@H](CN(CC2CCCCC2)[C@@H]4c2ccccc2)C3c2ccc(Cl)nc2)cc1 (stereo not given in full) 11.2 µM [inhibitor, single point]
CCC(=O)N(Cc1cc(=O)[nH]c2ccccc12)c1ccc(C)cc1 12.6 µM [inhibitor, partial curve, poor fit]
CN1CCN(S(=O)(=O)c2cccc(C(=O)N(C)CC(=O)Nc3ccc(Cl)c(Cl)c3)c2)CC1 12.6 µM [inhibitor, partial curve, poor fit]
CCN(CC)CCNC(=O)c1ccc(NC(=O)c2ccc(COc3ccccc3)cc2)cc1 11.2 µM [inhibitor, single point]

Potency, inactive:
COc1ccc(NC(=O)c2cc(OC)c(OC)c(OC)c2Br)cc1OC
CCOC(=O)C1(Cc2ccccc2C)CCCN(C(=O)CN2CCCCC2=O)C1 (stereo not given)
Cc1ccc(-c2cc(C(=O)NCCc3ccccc3)c3c(-c4ccc(C)cc4)[nH]nc3n2)cc1
O=C(COC(=O)C1=COCCO1)Nc1ccc([N+](=O)[O-])cc1C(F)(F)F
O=c1c2ccccc2n(Cc2cccc(F)c2)c(=O)n1Cc1ccccc1Cl
c1ccc(-c2ccc(-c3nc(-c4cccnc4)no3)cc2)cc1
CCN1CCN(CC(=O)N2N=CCC2c2ccccc2)CC1 (stereo not given)

Potency, active:
COc1cccc(N/C(SCc2ccccc2C)=C(/C#N)C(=O)NCc2cccs2)c1 7.08 µM
Cc1ccc(CSc2nc3ccccc3cc2C=O)cc1 3.98 µM
COc1ccc(C(=O)/C(=C/O)N=Nc2ccc(F)cc2)cc1 10 µM
